Source: PubChem BioAssay AID445 (National Center for Advancing Translational Sciences (NCATS), 2006)
About 40 (0.04%) of roughly 110,000 compounds were called active. The inconclusive results got no clear call from the source; some entries with a clear call stand among them for comparison. Calls come from the whole dose curve; as a rule, active = well fitted curve in the direction sought with a large enough effect in the signal ratio (not every such curve was filed as active); inconclusive = small, poorly fitted or top-dose-only effect, or a change in a side signal; inactive = flat fitted curve, though single readings scatter; the % refers to the signal ratio. A potency beside an inconclusive call is a rough fit, not a confirmed value.

Assay: IkB Signaling;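 for IkBa stabilization activation: 0% = basal untreated cells and 100% = reference inhibitor full response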
Details: ABC-DLBCL IkBa-CBG/CBR dual luciferase ratio (green luciferase fused to IkBa over red control in OCI-Ly3 lymphoma cells), 4 h; IkBa stabilization activation: at 57.1 µM (top of the series), scaled: untreated 0%, proteasome inhibitor 100% unless noted
Summary of the method: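 Curves were fitted separately to fusion (green), unfused (red) and ratio luminescence, then classed by r2, magnitude and activity. Cells: OCI-Ly3, 4 h compound plus doxycycline at 37C; 10 uM MG-132 defined full response.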
Potency is the fitted concentration of half-maximal effect.

Row | SMILES | IkBa stabilization activation | Potency
1 | Cc1ccccc1Nc1nc(N)nc(CSc2nnnn2-c2ccccc2)n1 | inactive: 0.261% | –
2 | CCOc1cc(CNC(=O)c2ccc(C)c(NC(=O)c3nsc4ccccc34)c2)ccc1OC | inconclusive: 0.982% [signal inhibitor] | –
3 | COc1ccc2c(c1)c1c(c(=O)n(-c3cccc(C)c3)c(=O)n1CC(=O)Nc1c(C)cc(C)cc1C)n2C | inactive: 7.44% | –
4 | Cc1cc(C)cc(NC(=O)CN2C(=O)COc3ccc(S(=O)(=O)Nc4ccccc4)cc32)c1 | inconclusive: -1.85% [signal inhibitor] | –
5 | COCCn1c(=O)c(-c2cc(F)cc(F)c2)nc2cnc(N(C)C)nc21 | inactive: 0.584% [at 11.4 µM, scaled: untreated 0%, proteasome inhibitor 100%] | –
6 | COc1ccc(NC(=O)C2CCN(c3cc(-c4ccccc4)nc4ncnn34)CC2)cc1OC | inconclusive: 1.27% [signal inhibitor] | –
7 | CCN1CCN(Cc2c(O)ccc3oc(C)c(C(=O)Nc4ccc(OC)c(Cl)c4)c23)CC1 | inconclusive: 9.18% [signal inhibitor] | –
8 | C[C@@]12CCC(=O)C=C1CC[C@H]1[C@@H]2[C@@H](O)C[C@]2(C)[C@@H]1CC[C@@]2(O)C(=O)COC(=O)C1CCCC1 | inactive: 7.9% [at 11.4 µM, scaled: untreated 0%, proteasome inhibitor 100%] | –
9 | CCOC(=O)c1ccccc1NC(=O)CSc1nc2ncccc2o1 | inconclusive: 0.0245% [signal inhibitor] | –
10 | Cc1ccc2nc(-c3ccncc3)c(Nc3ccccc3C)n2c1 | inconclusive: -1.94% [signal inhibitor] | –
11 | CC1=C(c2ccc(C)cc2)S(=O)(=O)N=C1N1CCN(c2ccccc2)CC1 | inconclusive: 0.56% [signal inhibitor] | –
12 | Nc1ccc(C(=O)OCc2nc3ccccc3[nH]2)cc1 | – | inconclusive: 20 µM [signal inhibitor, partial curve]
13 | Cc1ccc(CSC2=Nc3ccccc3C3=NC(CC(=O)NC4CCCCC4)C(=O)N23)c(C)c1 (centres undefined) | inconclusive: 0.108% [signal inhibitor] | –
14 | CCC(C)NC(=O)c1cn(CC)c2ccc(S(=O)(=O)N3CCCCC3)cc2c1=O (centres undefined) | inconclusive: 1.78% [signal inhibitor] | –
15 | CN1CCN(c2ccc(NC(=O)c3ccc4c(c3)OCO4)cc2)CC1 | inactive: 0.789% | –
16 | COc1ccc(OC(=O)c2ccncc2)cc1 | inactive: -0.165% | –
17 | Cc1ccc(NS(=O)(=O)c2ccc3c4c(cccc24)C(=O)N3)c(C)c1 | – | inconclusive: 39.8 µM [signal inhibitor]
18 | OCCNc1ncnc2c1ncn2[C@@H]1O[C@@H](CO)[C@H](O)[C@@H]1O | inactive: 1.73% [at 11.4 µM, scaled: untreated 0%, proteasome inhibitor 100%] | –
19 | Cc1cc(Nc2cccc(C(F)(F)F)c2)ncn1 | inactive: -0.756% | –
20 | CCN1C(=O)C(C(=O)Nc2ccc(OC)cc2)C2CC1(C)Oc1ccccc12 (centres undefined) | – | inconclusive: 25.1 µM [signal inhibitor, partial curve]
21 | Cc1ccc(-c2nc3sccn3c2Nc2ccccc2C)cc1 | inconclusive: 7.17% [signal inhibitor] | –
22 | O=C(NC1CCCCC1)N(Cc1nc2ccccc2c(=O)[nH]1)C1CCCCC1 | inconclusive: 0.908% [signal inhibitor] | –

Row | SMILES | IkBa stabilization activation | Potency
23 | CSCCC(NS(=O)(=O)c1ccc2c(c1)oc(=O)n2C)C(=O)N1CCN(c2cc(Cl)ccc2C)CC1 (centres undefined) | inconclusive: -1.34% [signal inhibitor] | –
24 | CCN(CCCNC(=O)c1cc2cc3cc(OC)ccc3nc2s1)c1cccc(C)c1 | inconclusive: 8.5% [signal inhibitor] | –
25 | COc1ccc(NC(=O)CSc2oc(-c3ccc(C)cc3)nc2S(=O)(=O)c2ccc(C)cc2)c(OC)c1 | inactive: -1.93% | –
26 | CCC(=O)Oc1c(Sc2ccc(Cl)cc2)c(C)nn1C(C)(C)C | – | inconclusive: 15.8 µM [signal inhibitor]
27 | Cc1cc2c(cc3c(SCc4ccc(Cl)cc4)nnc(C)n32)o1 | inactive: -1.36% | –
28 | O=C(CC(SCCO)c1ccc2c(c1)OCO2)c1cccs1 (centres undefined) | – | inconclusive: 25.1 µM [rising, partial curve]
29 | COc1ccc(N(C(=O)COc2c(C)cccc2C)S(=O)(=O)c2ccc(Cl)cc2)cc1 | inconclusive: 8.97% [signal inhibitor] | –
30 | Cc1ccccc1C(=O)NCC(c1cccnc1)N1CCc2ccccc21 (centres undefined) | inconclusive: 0.575% [signal inhibitor] | –
31 | CCOC(=O)c1c(C)sc(-c2c(-c3ccc4c(c3)OCCO4)[nH]c3c2c(=O)[nH]c(=O)n3C)c1O | inconclusive: -1.12% [signal inhibitor] | –
32 | CCOC(=O)C1CCN(C(=O)c2cc3cc4cc(OC)ccc4nc3o2)CC1 | – | inconclusive: 0.126 µM [signal inhibitor, full curve]
33 | N=c1c(C(=O)NCc2ccco2)cc2c(=O)n3ccccc3nc2n1Cc1ccccc1 | inactive: 7.32% | –
34 | Cc1ccc(-c2nnc(Nc3ccc(O)cc3)c3ccccc23)cc1S(=O)(=O)NCc1nc2ccccc2[nH]1 | – | inconclusive: 20 µM [signal inhibitor, partial curve]
35 | N#Cc1c(NCCCO)nc(NCc2ccccc2)c2c1CCN(Cc1ccccc1)C2 | inactive: 3.86% | –
36 | COCc1nnc(NC(=O)c2cccs2)s1 | inactive: 4.03% | –
37 | COc1cccc(-n2c(=O)c3sc4ccccc4c3n(CC(=O)Nc3ccc(F)cc3F)c2=O)c1 | – | inconclusive: 25.1 µM [signal inhibitor, single point]
38 | COc1cc(NC(=O)CSc2nc(C)c(C(=O)Nc3ccccc3)c(-c3ccc(OC)c(OC)c3)c2C#N)c(OC)cc1Cl | inconclusive: 5.06% [signal inhibitor] | –
39 | Cc1ccc(Cl)cc1N1CCN(CCCNc2ncnc3onc(-c4ccc(F)cc4)c23)CC1 | inconclusive: -0.977% [signal inhibitor] | –
40 | CCOCCCn1c(=N)c(S(=O)(=O)c2ccc(C)cc2)cc2c(=O)n3ccccc3nc21 | inactive: -2.54% | –
41 | COc1ccc2nc3sc(C(=O)Nc4cc(Cl)c(OC)cc4OC)cc3cc2c1 | – | inconclusive: 15.8 µM [signal activator]
42 | CCN1CCN(Cc2c(O)ccc3c(=O)c(Oc4ccccc4Cl)c(C(F)(F)F)oc23)CC1 | inconclusive: 1.56% [signal inhibitor] | –
43 | CCN1C(=O)/C(=C2/SC(C)=C(C)N2CC)SC1=S | inactive: 1.48% | –
44 | CCOC(=O)c1c(C)oc2nc(C)nc(NCc3ccc(C)cc3)c12 | inconclusive: -1.27% [signal inhibitor] | –

Row | SMILES | IkBa stabilization activation | Potency
45 | Cc1ccc(-c2nnc(Nc3ccc(Cl)cc3)c3ccccc23)cc1S(=O)(=O)N1CCOCC1 | inconclusive: 7.55% [signal inhibitor] | –
46 | Cc1ccc(Cl)cc1N1CCN(C(=O)c2cn(C)c3ccc(S(=O)(=O)N(C)C4CCCCC4)cc3c2=O)CC1 | inactive: -0.507% | –
47 | COc1ccc(CNC(=O)CCc2nc3cccnc3n2Cc2ccccc2)cc1 | inconclusive: 1.96% [signal inhibitor] | –
48 | Cc1cccc(N2CCN(C(=O)c3c(C)oc4nc(C)nc(N5CCCC5)c34)CC2C)c1 (centres undefined) | inconclusive: 6.36% [signal inhibitor] | –
49 | NC(=O)c1nsc(C(=O)N(CC(=O)NCc2ccc3c(c2)OCO3)C2CCCC2)c1N | inactive: -0.252% | –
50 | CC(C)C12CC[C@@]3(CC[C@H]4[C@@](C)(CCC[C@]4(C)C(=O)O)[C@@H]3C1)[C@@H](CN)C2 | inactive: -0.176% [at 11.4 µM, scaled: untreated 0%, proteasome inhibitor 100%] | –
51 | O=C(c1cc(-c2ccc(Cl)c(Cl)c2)on1)N1CCN(c2ccccc2)CC1 | – | inconclusive: 3.98 µM [signal inhibitor, partial curve]
52 | COc1ccc(NC(=O)Cn2c(=O)n(-c3ccc(CC(=O)NCC4CCCO4)cc3)c(=O)c3ccccc32)c(OC)c1 (centres undefined) | inactive: -1.18% | –
53 | COc1ccc(-c2nn3c(-c4ccc(C)cc4)nnc3c3ccccc23)cc1 | inconclusive: 0.057% [signal inhibitor] | –
54 | COc1cccc(CN2C(=O)c3ccccc3Sc3ccc(C(=O)NCCc4ccc(Cl)cc4)cc32)c1 | inconclusive: 0.706% [signal inhibitor] | –
55 | O=C(CSc1ncn(-c2ccccc2)n1)Nc1nc2c(s1)CCCC2 | inconclusive: 3.75% [signal inhibitor] | –
56 | CCc1ccc(OCC(=O)N(Cc2ccco2)Cc2ccco2)cc1 | inconclusive: -1.07% [signal inhibitor] | –
57 | O=C(c1cc(-c2ccccc2)nc2ccccc12)N1CCN(c2ccccn2)CC1 | inconclusive: 4.79% [signal inhibitor] | –
58 | COc1ccccc1NC(=O)CCn1nc(-c2ccccc2)c2ccccc2c1=O | inconclusive: -9.43% [signal inhibitor] | –
59 | Cc1cc(C)cc(OCc2cc(=O)n3cc(C)sc3n2)c1 | inconclusive: 5.53% [signal inhibitor] | –
60 | CN(C(=O)c1ccc2c(c1)N(Cc1ccccc1F)C(=O)c1ccccc1S2)C1CCCCC1 | inconclusive: 2.46% [signal inhibitor] | –
61 | CCCN1CCN(CCCNC(=O)c2ccc3c(c2)sc2nc(-c4ccc(C)cc4)cn23)CC1 | inconclusive: 7.2% [signal inhibitor] | –
62 | COc1ccccc1N1CCN(c2nc3ccc(C)cc3nc2-n2nc(C)cc2C)CC1 | inconclusive: 3.61% [signal inhibitor] | –
63 | CCOC(=O)c1c(C)n(-c2ccccc2)c2ccc(OC(=O)c3ccc(OCC)c(OCC)c3)cc12 | inactive: -1.51% | –
64 | Cc1nn(-c2nc3ccccc3s2)c(N)c1-c1ccccc1 | inconclusive: 19.2% [signal inhibitor] | –
